# Laboratory results reported in PubChem BioAssay AID463173 (ICCB-Longwood Screening Facility, Harvard Medical School, 2010).
# About 1,700 (3.3%) of roughly 52,000 compounds were called active. Rule as the data show it: active = survival mostly below about 52% (no sharp cut-off); inactive = mostly above about 56%. Some of the results follow.
# Test system: Wild type
# Assay: S. aureus survival, RN4220 and DeltatarO strains – OD600, teichoic acid synthesis inhibitors, primary screen (AID 463173)
# Conditions: S. aureus RN4220 wild type/DeltatarO growth, OD600, 18 h, stronger effect = lower value, screened at 18.75 µg/mL (by protocol)
row,SMILES,survival
1,CCOc1cccc(CNC(=O)c2ccc(N3CCCC3)c(NC(=O)NCc3ccccc3)c2)c1,inactive: 77%
2,Cc1ccccc1CNC(=O)CCS(=O)(=O)c1cc2c3c(c1)CCN3C(=O)CC2,inactive: 132%
3,Cc1ccc(Nc2sc(C(=O)c3ccccc3)c(N)c2S(=O)(=O)c2ccccc2)cc1Cl,inactive: 101%
4,Fc1ccc(-n2ncc3c(Nc4ccc5c(c4)OCCO5)ncnc32)cc1,inactive: 89%
5,Cc1ccc(N2CCN(C(=O)c3cc4cc5ccc(C)cc5nc4s3)CC2C)cc1 (stereo not drawn),inactive: 85%
6,FC(F)(F)c1cccc(C(c2nnnn2Cc2ccccc2)N(Cc2ccco2)CC2CCCO2)c1 (stereo not drawn),inactive: 140%
7,Cc1nc2ccccn2c1C(=O)OCC#N,inactive: 108%
8,Cc1cc(S(=O)(=O)N(C)CCc2ccccc2)ccc1-n1cnnn1,inactive: 99%
9,COc1ccccc1N1CCN(C(=O)CCS(=O)(=O)c2ccc3c(c2)oc(=O)n3C)CC1,inactive: 68%
10,CCc1ccc(CNC(=O)Cn2nc(-c3ccc(C)cc3)ccc2=O)cc1,inactive: 124%
11,CCOC(=O)N1CCN(C(=O)c2cnn3c(C(F)(F)F)cc(-c4cccc(OC)c4)nc23)CC1,inactive: 96%
12,COc1ccc(O)c(C2=Nc3ccccc3N=C(c3ccccc3)C2)c1,inactive: 100%
13,COc1cc(C(=O)NCCc2csc(-c3ccc(Cl)cc3)n2)cc(OC)c1OC,inactive: 67%
14,COc1ccc(-c2noc(CSc3nnc(C)n3-c3cccc(C)c3)n2)cc1,inactive: 91%
15,Cc1cc(C=C(C#N)C#N)c(C)n1-c1ccccc1,inactive: 114%
16,COc1ccccc1NC(=O)c1oc2ccccc2c1NC(=O)Cc1ccccc1,inactive: 80%
17,CCOC(=O)c1nc(Nc2ccc(C(=O)OC(C)C)cc2)c2ccccc2n1,inactive: 93%
18,CC(O)Cc1nsc(NC(=O)c2cccs2)n1 (stereo not drawn),inactive: 108%
19,CSc1nnc(C2CCCN(CC(=O)NC3CCCCC3C)C2)n1C (stereo not drawn),inactive: 124%
20,CNC(=O)c1ccc2c(c1)N(Cc1cc(C)ccc1C)C(=O)c1ccccc1S2,inactive: 58%
21,CCn1c(=O)c(C(=O)Nc2ccc(Cl)cn2)c(O)c2ccccc21,inactive: 104%
22,O=C(CN1C(=O)CC(c2ccccc2)=Nc2ccccc21)Nc1ccc(Br)cc1,inactive: 146%

row,SMILES,survival
1,COc1ccc(CNC(=O)c2ccc(-c3nc(CSc4ccc(C)cc4)c(C)o3)cc2)c(OC)c1,active: 1%
2,Cc1cccc(CCNC(=O)c2cc3c(s2)-c2c(C)cccc2OC3)c1,inactive: 100%
3,O=C(NCCc1ccccc1)c1ccc(Nc2nc3ccccc3n3nnnc23)cc1,inactive: 71%
4,Cc1ccc2c(c1)N(C(=O)Nc1cccc3c1CCCC3)CCO2,inactive: 89%
5,CCCN1CCN(C(=O)Cn2c(-c3cccs3)cc3cc(F)ccc32)CC1,inactive: 85%
6,CCOC(=O)C1=C(C)N(C2CCCCC2)C(=O)C1,inactive: 109%
7,CCOC(=O)c1c(NC(=O)CSc2cn(CCNC(=O)c3ccc(OC)cc3)c3ccccc23)sc2c1CCCC2,inactive: 70%
8,COc1ccc(C2c3c(n(C)c4ccccc34)C(=O)N2CC(=O)Nc2cccc(Cl)c2)cc1 (stereo not drawn),inactive: 89%
9,Cc1nc2ccc(S(=O)(=O)N(CC(=O)Nc3ccc(F)cc3)Cc3ccccc3)cc2s1,inactive: 113%
10,COC(=O)c1sc2cccc(F)c2c1S(=O)(=O)N1CCN(c2cccc(C)c2)C(C)C1 (stereo not drawn),inactive: 87%
11,COc1ccc(CCNc2ncnc3c2nnn3C)cc1,inactive: 113%
12,CC1CCc2c(sc(NC(=O)CCCOc3ccccc3)c2C(N)=O)C1 (stereo not drawn),inactive: 91%
13,CCN1CCN(C(C)C(=O)NCc2ccc(OC)cc2)CC1 (stereo not drawn),inactive: 92%
14,CCCOC(=O)c1c(NC(=O)c2cc3ccccc3c(=O)o2)sc2c1CCC(C)C2 (stereo not drawn),inactive: 105%
15,CCOc1ccc(-n2nc3ccc(NC(=O)Cc4ccccc4)cc3n2)cc1,inactive: 80%
16,CC(C)(C)OC(=O)N1CCC(c2c(C(=O)N3CCN(C(=O)c4ccco4)CC3)cnn2-c2ccc(F)cc2F)CC1,inactive: 129%
17,CCc1cccc(NC(=O)CN(C)S(=O)(=O)c2ccc3[nH]c4c(c3c2)CCCC4)c1,inactive: 73%
18,Cc1cc(-c2ccc(C)c(S(=O)(=O)N3CCOc4ccc(Cl)cc43)c2)on1,inactive: 127%
19,CCc1ccccc1-n1c(N)c(C(=O)OC)c2nc3ccccc3nc21,inactive: 75%
20,COc1ccc(-c2cn3c(C)c(C(=O)Nc4cc(C)cc(C)c4)sc3n2)cc1,inactive: 73%
21,CCOC(=O)c1cnc2c(Cl)cc(Cl)cc2c1Nc1ccccc1OC,inactive: 65%
22,COC(=O)c1ccc(Cn2nnc3c(=O)[nH]c(C4CCCN(S(=O)(=O)c5ccccc5Cl)C4)nc32)cc1 (stereo not drawn),inactive: 78%

row,SMILES,survival
1,Cc1ccc(-c2nnc3c4ccccc4c(C)nn23)cc1NC(=O)c1ccccc1,inactive: 70%
2,COc1cc(NC(=O)c2nnn(CC(=O)Nc3cc(C)ccc3C)c2N)cc(OC)c1,inactive: 87%
3,C/C(=N\O)C(=O)C(CN1CCCCC1)CN1CCCCC1,inactive: 103%
4,CCOC(=O)CCc1c(C)nc2cc(-c3cc(OC)cc(OC)c3)[nH]n2c1=O,inactive: 74%
5,O=C(Nc1ccc(OC(F)(F)F)cc1)c1noc2c1CCCC2,inactive: 86%
6,CCn1c(COc2ccccc2)nnc1SCC(=O)CC(=O)Nc1ccccc1OC,inactive: 100%
7,CCOc1cc(C(=O)Nc2ccc3c(c2)n(C)c(=O)c(=O)n3C)cc(OCC)c1OCC,inactive: 81%
8,CCOc1ccc(-n2c(SCC(=O)Nc3ccc(CC)cc3)nc3c(oc4ccccc43)c2=O)cc1,inactive: 85%
9,COc1cc(NC(=O)c2cc(-c3cccc(OC)c3)n[nH]2)cc(OC)c1,inactive: 74%
10,COC(=O)c1ccc(NC(=O)CC2C(=O)N(c3cccc(OC)c3)C(=O)N2C(C)C)cc1 (stereo not drawn),inactive: 78%
11,O=C(NCCCN1CCN(c2cccc(Cl)c2)CC1)c1cnn(-c2ccc(F)cc2)c1-n1cccc1,active: 0%
12,O=C(NCCc1csc2nc(-c3ccccc3F)nn12)C(=O)Nc1cc(F)ccc1F,inactive: 63%
13,CCOC(=O)c1c(C)oc2ncnc(Nc3cc(C)cc(C)c3)c12,inactive: 74%
14,Cc1ccc(N2CC(NC(=O)c3cccc(Cl)c3)CC2=O)cc1C (stereo not drawn),inactive: 78%
15,COc1ccc(N(C(=O)c2ccc(C(C)(C)C)cc2)S(=O)(=O)c2ccc(Cl)cc2)cc1,inactive: 77%
16,COc1ccc(CNC(=O)c2cnn3c(C)c(Cc4c(F)cccc4Cl)c(C)nc23)cc1,inactive: 63%
17,CCC1=C(c2ccc(C)cc2)S(=O)(=O)N=C1N1CCC(C(=O)NCc2ccc(N(C)C)cc2)CC1,inactive: 68%
18,CCN1C(=O)c2ccccc2Sc2ccc(NC(=O)Nc3cccc([N+](=O)[O-])c3C)cc21,inactive: 117%
19,Cc1cccc(N2CCN(C(=O)c3cnc(N4CCCC4)nc3C)CC2)c1C,inactive: 72%
20,COc1ccc(C2c3c(n(C)c4ccccc34)C(=O)N2CC(=O)Nc2cccc(Cl)c2C)cc1 (stereo not drawn),inactive: 112%
21,CCCCOc1ccc(C(=O)NCc2nnnn2-c2ccc(C)c(C)c2)cc1,inactive: 88%
22,COC(=O)c1c(NC(=O)/C(C#N)=C/c2ccccc2)sc2c1C(C(=O)OC)CC2 (stereo not drawn),inactive: 82%

row,SMILES,survival
1,CC(=O)Nc1ccc(OC(=O)c2ccco2)cc1,inactive: 106%
2,CCc1ccccc1Nc1sc(C(=O)c2cccc(OC)c2)c(N)c1S(=O)(=O)c1ccccc1,inactive: 82%
3,CC1CCCN(C(=O)Cn2ncc3c([nH]c4ccccc43)c2=O)C1 (stereo not drawn),inactive: 81%
4,CCOC(=O)N1CCc2c(sc3c2c(=O)n(-c2ccc(CC)cc2)c(=O)n3C)C1,inactive: 77%
5,CCc1ccccc1NC(=O)Cn1c(=O)ccc2cc(S(=O)(=O)N3CCCC3)ccc21,inactive: 64%
6,CCCSc1ncc(Cl)c(C(=O)N(Cc2ccc(Cl)cc2)Cc2ccco2)n1,inactive: 78%
7,Cc1ccccc1OCC(=O)N1CCC(c2nc3ccccc3s2)CC1,inactive: 65%
8,COc1ccc(OCc2ccc(-c3nc(C#N)c(N4CCCCC4)o3)o2)cc1,inactive: 72%
9,Cc1ccc(NC(=O)Cn2nc(N3CCN(c4ccccc4)CC3)ccc2=O)cc1F,inactive: 84%
10,COc1ccc(-n2c(=O)c3sc4ccccc4c3n(Cc3ccccc3C)c2=O)cc1OC,inactive: 89%
11,COc1ccc(C(=O)c2c(N)c(C(=O)Nc3cccc(OC)c3)c3ccccn23)cc1,inactive: 95%
12,Cc1c(C(=O)N(C)C)sc2c1c(=O)n(-c1ccc(Cl)cc1)c(=O)n2CC(=O)C(C)(C)C,inactive: 75%
13,CCC(C(=O)O)n1ccc2cc(S(=O)(=O)N3CCCCC3)ccc21 (stereo not drawn),inactive: 69%
14,CCC1CCCCN1S(=O)(=O)c1cc2c3c(c1)CC(=O)N3CCC2 (stereo not drawn),inactive: 95%
15,COc1ccc(S(=O)(=O)N2Cc3ccccc3CC2C(=O)Nc2ccc(C)cc2C)cc1OC (stereo not drawn),inactive: 72%
16,CCOC(=O)c1c(C)[nH]c(C)c1S(=O)(=O)N1CCC(C(=O)NCc2cccc(OC)c2)CC1,inactive: 63%
17,CC(=O)c1ccc(NC(=O)CCc2c(C)nn(-c3ccc(N4CCOCC4)nn3)c2C)cc1,inactive: 80%
18,Cc1cc(C)c(S(=O)(=O)NCCc2cc3ccc(C)c(C)c3[nH]c2=O)c(C)c1,inactive: 74%
19,O=c1c2sc3ccccc3c2n(Cc2cccc(Cl)c2)c(=O)n1Cc1ccco1,inactive: 68%
20,Cc1ccc(N2CCN(C(=O)C3CCN(S(=O)(=O)c4ccc5c(c4)oc(=O)n5C)CC3)CC2C)cc1 (stereo not drawn),inactive: 134%
21,CCOc1ccccc1NC(=O)c1cnccn1,inactive: 104%
22,Cc1cc(NC(=O)c2cc(-c3cccc(Cl)c3)on2)n(-c2ccccc2)n1,inactive: 127%
